# Source: PubChem BioAssay AID1345082 (National Center for Advancing Translational Sciences (NCATS), 2018)
# “And” between values parts separate entries of the source, which are not always exact repeats. Identical values can stand only once. The whole screen tested about 94,000 compounds, of which about 4,000 (4.3%) were called active. The shares of active, inactive and inconclusive entries below differ from those in the screen. The call rests on the fitted dose curve; in most records, active means well fitted inhibition curve with a large enough effect; inconclusive means small, poorly fitted or top-dose-only effect; inactive means no such curve, though single readings can be large or run the other way. A potency beside an inconclusive call is a rough fit, not a confirmed value.
# Assay: Cytotoxic Profiling in NIH 3T3 Cell Line of Diverse Libraries Using Quantitative High-Throughput Screening; further: nearly all actives have a fitted effect of over 55% in size
# Details: NIH 3T3 viability, CellTiter-Glo ATP luminescence, 48-72 h; series mostly up to 96.7 µM
# Procedure, shortened: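 Cytotoxicity is measured as loss of cellular ATP: NIH 3T3 cells (400/well) are exposed to compound for 48 or 72 hr at 37 °C, then CellTiter-Glo luminescence is imaged after 10 min at room temperature.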
# Potency means the concentration at half of the fitted maximal effect; tags describe the fitted curve by direction and shape.
row,SMILES,Potency
1,Fc1cc(F)cc(Cc2nc3nccc(-c4cccnc4)n3n2)c1,"inconclusive: 50.1 µM [inhibitor, partial curve, poor fit]"
2,CCOCCOC1CCN(C(=O)NCc2ccccc2)CC1,inactive
3,FC(F)(F)Oc1ccc(CN2CCC3(CC2)CC(c2cccc(C(F)(F)F)c2)=NO3)cc1,inactive
4,CC[C@H]1CN(S(=O)(=O)c2ccc(OC)cc2)CC[C@H]1CC(=O)Nc1nccs1,"inconclusive: 100 µM [inhibitor, partial curve, poor fit]"
5,CC(C)N1C[C@H](O)C[C@H]1c1nnc2n1CCN(C(=O)CCC1CCCC1)C2,inactive
6,NCc1cccc(-c2cc(C(F)(F)F)ccc2Cl)c1,"inconclusive: 50.1 µM [inhibitor, partial curve, poor fit]"
7,Clc1cnccc1CN1CCNc2cnc(Oc3ccccc3)cc2C1,"inconclusive: 31.6 µM [inhibitor, full curve]"
8,CC(C)(C)c1nc(C(=O)NCc2cccnc2)n2ccccc12,"inconclusive: 35.5 µM [inhibitor, full curve]"
9,CCOc1ccccc1CN1CCC2(CCN(C(=O)C3CCCC3)CC2)Oc2ccccc21,"inconclusive: 35.5 µM [inhibitor, partial curve]"
10,CN1CC(C(=O)NCc2cccc(F)c2)NC1=O (centres undefined),inactive
11,O=C1CCC2(C(=O)N3CCOCC3)CCCC=C2N1c1ccccc1 (centres undefined),inactive
12,COCCn1c(=O)c(C(=O)N2CCN(Cc3ccccc3)CC2)nc2cccnc21,inactive
13,CCN1CCCC1CNC(=O)CC[C@H]1NC(=O)c2ccccc2NC1=O (some centres undefined),inactive
14,CCOc1ccc(-c2nc(C3CC(=O)N(c4ccc(Cl)cc4)C3)no2)cc1 (centres undefined),inactive
15,CCc1nc(-c2c3n(c(=O)n(Cc4cccc(Cl)c4)c2=O)CCCC3)no1,"inconclusive: 70.8 µM [inhibitor, single point]"
16,CCOC(=O)C1CCN(C(=O)c2ccc3nnc(-c4ccc(OC(F)(F)F)cc4)n3c2)CC1,"inconclusive: 50.1 µM [inhibitor, partial curve, poor fit]"
17,CCOc1ccc(CN2CCC3(Cc4ccccc4CNC3=O)C2)cc1 (centres undefined),inactive
18,COCC(=O)N[C@H]1C[C@@H](Cc2cc(-c3ccc(OC)cc3)on2)C1(C)C,active: 56.2 µM
19,CC1(c2ccccc2)N(Cc2ccccc2F)C(=O)OC12CCN(C(=O)COc1ccccc1C(N)=O)CC2 (centres undefined),"inconclusive: 70.8 µM [inhibitor, single point]"
20,CCCCn1c(=O)c(C(=O)NCCCc2ccccc2)nc2cccnc21,"inconclusive: 50.1 µM [inhibitor, partial curve, poor fit]"
21,COc1ccccc1CN1CCC2(CC1)COCCN2C(=O)OCc1ccccc1,"inconclusive: 79.4 µM [inhibitor, partial curve, poor fit]"
22,CC1=C[C@@H](CNC2CC2)[C@H](C(C)C)C[C@H]1Cc1nnc(-c2ccc(C)cc2)o1,active: 39.8 µM

row,SMILES,Potency
1,Cn1ncc2c(C(=O)N3CCCC3)cc(C(C)(C)C)nc21,"inconclusive: 79.4 µM [inhibitor, partial curve, poor fit]"
2,CCNC(=O)CCc1c(C)nn(-c2ccccc2)c1Oc1ccc(F)cc1F,"inconclusive: 50.1 µM [inhibitor, partial curve, poor fit]"
3,CCn1cc(Cl)c(C(=O)N2CCc3c(nc(-c4ccccc4)[nH]c3=O)C2)n1,"inconclusive: 70.8 µM [inhibitor, single point]"
4,O=C(N[C@@H]1CNCCC[C@H]1O)c1ccc(OCCN2CCCC2)cc1,inactive
5,O=C(c1ccc(Cl)cc1)N1CCC2(Cc3ccccc3NC2=O)C1 (centres undefined),"inconclusive: 11.2 µM [inhibitor, full curve] and inconclusive: 63.1 µM [inhibitor, partial curve, poor fit]"
6,COc1ccc(C(=O)N2CCC(Cc3nc(-c4ccccc4)no3)CC2)cc1F,"inconclusive: 6.31 µM [inhibitor, full curve, poor fit]"
7,O=C(NCc1ccccc1)c1cnc2n1CCN(Cc1ccc3c(c1)CCO3)CC2,inactive
8,COc1ccc(-c2noc([C@@H]3CCCN3C(=O)COc3ccc(Cl)cc3)n2)cc1,"inconclusive: 50.1 µM [inhibitor, partial curve, poor fit]"
9,CC1=NS(=O)(=O)N(C)C=C1C(=O)OCc1noc(-c2ccccc2F)n1,"inconclusive: 2.51 µM [inhibitor, full curve, poor fit]"
10,O=C(NCC(F)(F)F)c1nc2cccnc2n(C2CC2)c1=O,inactive
11,CN(Cc1cccnc1)Cc1nc(C2(O)CCN(Cc3ccc(C(F)(F)F)cc3)CC2)cs1,inactive
12,CN1CC2(CCCN(C3CCN(C(=O)c4cnccn4)CC3)C2)OC1=O (centres undefined),inactive
13,Cn1cc(CN2C[C@@H](F)[C@@H](OCc3nc4ccccc4o3)C2)c2ccccc21,"inconclusive: 100 µM [inhibitor, single point]"
14,COCC1CN(C)CC12CCN(C(=O)Cc1ccc(OC)cc1)CC2 (centres undefined),inactive
15,O=C(c1cccc(Cl)c1)N1CCCC(c2nn(-c3ccccn3)c(=O)[nH]2)C1 (centres undefined),inactive
16,Cc1cc(-n2nnnc2N2CCN(C(=O)Nc3ccc(C)c(F)c3)CC2)ccc1F,"inconclusive: 44.7 µM [inhibitor, partial curve, poor fit]"
17,CSc1ccc(-c2nc3c([nH]2)CC(C)(C)CNC3=O)cc1,inactive
18,COc1ccc(-c2cccc(C(=O)N3CCN([S+](=O)([O-])c4ccccc4)CC3)c2)nn1,inactive
19,COc1ccc(CN2Cc3cc(NC(=O)Cc4ccc(F)cc4)ccc3OC(C)C2=O)cc1 (centres undefined),"inconclusive: 15.8 µM [inhibitor, full curve, poor fit]"
20,Cc1ccc(NC(=O)Cn2c(-c3ccc(F)cc3)nc(C)c(CCO)c2=O)cc1Cl,"inconclusive: 39.8 µM [inhibitor, partial curve, poor fit]"
21,COC[C@@H]1[C@H](C(=O)NCc2ccc(F)cc2)CCC(=O)N1C,inactive
22,CCN(CCCNC(=O)c1nnn2cc(-c3ccccc3)[nH]c(=O)c12)c1ccccc1,"inconclusive: 56.2 µM [inhibitor, partial curve, poor fit]"
